Assay results published in the supplement of paper PMC3334620.
Over roughly 33,000 sequences, “E-score (-0.5 to 0.5)” has its median near -0.012; the highest 2% begin near 0.27. This is one part of the list.

What follows are sequences tested against T1, Vhr1 (UniProt P40522) (assay: PBM E-score (8-mer binding enrichment) (E-score (-0.5 to 0.5)); higher = stronger / more preferred TF binding; most listed sequences are background and not binding sites). Conditions: protein concentration: 200 nM; construct: GST-full length.
T1 sequence: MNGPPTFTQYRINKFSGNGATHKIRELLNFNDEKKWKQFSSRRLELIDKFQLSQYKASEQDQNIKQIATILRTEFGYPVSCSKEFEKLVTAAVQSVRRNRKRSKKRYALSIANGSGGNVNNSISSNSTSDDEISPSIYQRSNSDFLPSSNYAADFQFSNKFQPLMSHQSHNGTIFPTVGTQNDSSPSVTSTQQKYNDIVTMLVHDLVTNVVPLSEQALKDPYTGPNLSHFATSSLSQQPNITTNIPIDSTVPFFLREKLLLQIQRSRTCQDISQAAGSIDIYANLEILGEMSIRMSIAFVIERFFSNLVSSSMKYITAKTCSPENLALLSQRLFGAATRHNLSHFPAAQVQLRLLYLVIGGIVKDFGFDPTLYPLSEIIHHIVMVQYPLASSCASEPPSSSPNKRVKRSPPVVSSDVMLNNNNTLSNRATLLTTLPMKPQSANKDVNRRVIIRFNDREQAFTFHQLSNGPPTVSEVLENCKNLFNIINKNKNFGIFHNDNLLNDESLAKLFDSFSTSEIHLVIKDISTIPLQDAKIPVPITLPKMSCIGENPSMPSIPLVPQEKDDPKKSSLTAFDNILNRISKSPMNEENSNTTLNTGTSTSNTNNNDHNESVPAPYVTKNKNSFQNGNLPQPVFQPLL
How it was run: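 Universal all-10-mer Agilent arrays, fresh or stripped once, were converted to double-stranded form by primer extension. GST-tagged yeast transcription factors from PURExpress in vitro transcription/translation, full-length or DNA-binding domain only, were applied at about 100-200 nM and detected with fluorescent anti-GST. After masliner normalisation, the Universal PBM Analysis Suite scored each ungapped eight-base word together with its reverse complement by E-score.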

Sequence	PBM E-score
ACTCAATG	0.159
ACGATTCT	0.0967
GTTTTATA	-0.0144
ACGTGTCA	0.0924
GCGGTGAC	0.103
TAAGGCCA	-0.213
CTACGCGC	0.0705
GCGATTGA	-0.121
ACAGTTCT	0.0293
CGAGCAAG	-0.0458
TCTGCGAA	-0.226
GCGGGGCA	-0.0284
CAGCTTTC	-0.0274
AACAGAAG	-0.178
ACTCAGTA	0.281
GACTCAGC	0.404
CCACAAGC	-0.0942
CAACGCCG	0.00171
CCGTGTAA	-0.067
CTACTCAA	0.113
AAGGCACC	-0.0491
ATATAGGA	0.124
GGTCGCAA	0.0154
ATCACTTG	-0.0397
GCGGGGGA	-0.0987

Sequence	PBM E-score
CCATCACC	0.177
ATGTGATC	0.132
CGTATAAA	0.0599
GCCTATCA	-0.112
ACTGTAGA	0.0811
CGGGGTAC	-0.239
CAGGTCGC	-0.143
TCAAATAA	-0.155
ATTTCTCA	-0.233
ATGGGTTC	0.146
AGGGTATA	0.158
GACCCAAC	0.0715
CCAAGGCA	-0.0106
ACCGTGTC	0.0801
ACACTTCC	-0.224
AATGTCGC	-0.00104
GGGTCGAC	0.114
CTCCGGCA	0.152
CAGCGTAC	-0.0274
CTCCTTTC	0.0578
AAGCTTTA	-0.237
CCAAATAA	-0.0109
GTATCTTA	0.146
ATGGTATG	0.00124
AAATCAAG	-0.0986

Sequence	PBM E-score
ACATGACA	0.206
ACCTAACC	-0.0255
CCAATCTC	0.0436
AGGGGGAC	-0.0147
ACCGCTTC	-0.129
CCAGGTGA	0.167
CTTCGTTC	-0.109
CGAGACCC	0.135
CGTGTTCC	0.105
GCGTCTCC	-0.0648
GAGACGAA	0.026
ACCCAACC	0.135
TCGGCAGA	0.0483
AAGAACTT	-0.235
AGGTGCCA	0.023
CTTGATGC	-0.0279
AGATGGAG	0.0425
ATAATGAT	0.265
GAAAAAAC	-0.236
CTTTCTCA	-0.189
ATACGGTA	0.116
ATACCACA	0.129
GCGGTAGC	0.0852
GAGTAGGC	0.00436
CACCTGGC	0.16

Sequence	PBM E-score
TAAGTGGA	0.0179
AGTCGCTG	0.216
ATTCAACC	0.124
ACAGTAAG	0.0473
ATCTCCAA	0.0198
CCGGAAGC	-0.0127
CGGTCTCA	-0.14
GTCCCTCA	-0.0158
AGTTAAAT	-0.159
GTCAAGCA	-0.293
ATCATCAA	0.136
ATTCTCTC	0.125
TCGATGAA	-0.0563
TAACTGCA	0.0163
CTACAATA	0.183
CGCTCGTA	0.207
AAGTGAGA	-0.0753
GCTACAAC	-0.0177
TAGCGGGA	-0.153
TAGGGGGA	-0.225
AACTGGTA	0.0402
TTTCAAAA	-0.305
TCAGCAGA	0.0746
AGTACACT	0.0149
GTTCCGAA	0.131

Sequence	PBM E-score
AACGAGGT	0.0193
GTGTTTTA	0.0633
CCTCCGGA	0.00729
CCGAGCAG	0.044
AACACCAG	0.0237
ATTAACCA	0.189
GGGCATGA	-0.00514
ACGAGGCT	0.132
CTAATGGA	-0.0784
CTATATTC	-0.109
CCCCGATC	-0.0087
CACCGCCG	0.183
CAATATGA	0.155
GCTAAGAC	0.036
CTGTATCC	0.119
CAAGCTCG	0.0842
CCGTTGGC	-0.045
ATAAACGC	-0.197
ATACCCTA	0.158
AATCTCTA	0.0403
CGTTGCAA	-0.0437
GCAGGGGA	-0.0781
AGCCTGGC	0.022
CGGAACGC	-0.0324
GTAGCCCA	0.0388

Sequence	PBM E-score
AGTAGACC	0.031
CACCCCTA	0.0866
CTGCCTGC	-0.125
CGGACCTC	-0.114
GCTATAGA	-0.216
CCGGAGTC	0.421
AGTTTAAC	-0.24
GATGCGGC	-0.0278
CGAGACTA	0.202
CGCTTGGC	-0.0376
GCCTTTGA	-0.0374
GTAGTTAA	0.0877
ACTTAGGA	-0.198
AGAGCTGG	0.0564
GGGGCCAA	-0.0289
GACTGTAA	-0.0713
GGAGCCCA	-0.0712
ACCGGGAA	0.132
GGGAGTAA	0.0449
CTATTCAA	-0.0852
AGGGGTAC	-0.0627
GTGACACA	0.196
AGCTTGGC	-0.278
ACTCATTG	0.196
AGCACGCG	-0.00394

Sequence	PBM E-score
AGTAGATG	0.0735
CAGGCCAC	0.00274
AGCTCCGA	-0.123
CGGGCCCG	-0.047
CCGCTAAG	-0.025
CAGACGCG	-0.184
TAAACCGA	0.0002
AGGGCCAT	-0.231
AGCCCTGC	0.0556
GTTCGTCA	-0.0885
CGTGGGGA	0.0323
CTAGGGCC	-0.208
CCGATCAC	0.0847
TACGGCTA	-0.113
ATCGGTTC	0.00243
AGCCTTCC	-0.317
CAGATGAG	0.219
GCAGGTGA	0.119
CTCATGTC	0.107
AACGGCTT	-0.235
AGCCATGG	0.281
CAGCTAAG	-0.204
